Measurements: the supplement of paper PMC11181314
The other results are listed elsewhere or left out. Single values of this set are uncertain.

System: U2OS
Experiment: Cell Painting induction (percent of morphological features significantly changed vs DMSO); higher = stronger morphological change
Settings: 10 µM; 20 h; run: confirmation repeat
Procedure: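 Cell Painting assay in U2OS cells: compounds at 10 µM for 20 h, six dyes, 579 robust CellProfiler features as Z-scores vs DMSO median (MAD). Induction is the % of significantly changed features (active if ≥5%); relative cell count is in % of DMSO. The primary run holds DCM compounds preselected for induction ≥10%; the confirmation repeat defines active compounds (370 of 549). Replicate agreement is low, attributed to precipitation.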
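Note: stains mark DNA, RNA and nucleoli, ER, actin, Golgi, plasma membrane and mitochondria, read by high-content imaging, with DMSO controls at matching solvent concentration.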

SMILES	Cell Painting induction
COc1ccc(OC)c(NC(=O)Cn2cc(C(=O)c3ccccc3)c(=O)c3cc(C)ccc32)c1	active: 5.4%
COc1ccc(NC(=O)c2cc(S(=O)(=O)N3CCCC3)cn2C)cc1Cl	active: 41.6%
Cc1ccc(-n2ncc(C(=O)Nc3cc(Cl)ccc3C)c2C2CCNCC2)cc1	active: 43%
CCc1ccc(NC(=O)c2nnn(-c3ccc(OC)c(Cl)c3)c2C)cc1	active: 6.7%
COc1ccc(C)cc1NC(=O)c1nnn(Cc2cccc(F)c2)c1N	active: 25.9%
COc1ccccc1NC(=O)CSc1nc2ccccc2c(=O)n1CC1CCCO1 (stereo not given)	inactive: 2.1%
O=C(CSc1nc(O)c2ccccc2n1)Nc1ccccc1C(F)(F)F	inactive: 0%
COc1ccc(N2CCN(CCCNC(=O)c3ccc(CS(=O)(=O)c4ccc(Cl)cc4)o3)CC2)cc1	active: 30.9%
CCOc1ccc(NC(=S)NCCCN2CCN(C3CCCCC3)CC2)cc1	active: 19.5%
O=C(Cn1nc(-c2ccccc2)ccc1=O)NCCN1CCN(c2cccc(Cl)c2)CC1	active: 47.2%
Cc1ccc(N(CC(=O)NCCSc2ccccn2)S(=O)(=O)c2ccc(F)cc2)cc1	inactive: 1.7%
Cc1ccccc1NC(=O)c1cn2c(nc3ccccc32)c(C#N)c1C	active: 36.1%
CCN(CC)CCCNC(=O)C(C)Sc1nc(-c2ccccc2)cc(C(F)(F)F)n1 (stereo not given)	active: 31.1%
CCC1CCCCN1CCCNC(=O)C1CCCN(c2ncnc3c2nc2n3CCCCC2)C1 (stereo not given)	inactive: 4.5%
CCOC(=O)N1CCC(N(CCN(C)C)C(=S)Nc2cccc(Cl)c2C)CC1	active: 24%
CC1CCN(CCCn2c(SCC(=O)NC3CCCC3)nc3ccccc3c2=O)CC1	active: 12.6%
CCOc1ccccc1NC(=O)CSc1nc2ccccc2nc1N1CCOCC1	active: 13.5%
CN(CC(=O)NCCN1CCN(Cc2ccccc2)CC1)S(=O)(=O)c1cccc2nsnc12	inactive: 1.4%
CC(=O)Nc1sc2c(c1C(c1cccc(Cl)c1)N1CCN(CCO)CC1)CCCC2 (stereo not given)	active: 16.2%
C=CCn1c(SCC(=O)N2CCC(C)CC2)nc2c3ccccc3nc-2c1O	active: 7.1%

Same assay, conditions: 10 µM; 20 h; run: primary screen (compounds selected for induction >=10%)

SMILES	Cell Painting induction [%]
COc1ccc(OC)c(NC(=O)Cn2cc(C(=O)c3ccccc3)c(=O)c3cc(C)ccc32)c1	42.5
COc1ccc(NC(=O)c2cc(S(=O)(=O)N3CCCC3)cn2C)cc1Cl	43
Cc1ccc(-n2ncc(C(=O)Nc3cc(Cl)ccc3C)c2C2CCNCC2)cc1	42.3
CCc1ccc(NC(=O)c2nnn(-c3ccc(OC)c(Cl)c3)c2C)cc1	19.3
COc1ccc(C)cc1NC(=O)c1nnn(Cc2cccc(F)c2)c1N	22.3
COc1ccccc1NC(=O)CSc1nc2ccccc2c(=O)n1CC1CCCO1 (stereo not given)	10.4
O=C(CSc1nc(O)c2ccccc2n1)Nc1ccccc1C(F)(F)F	11.1
COc1ccc(N2CCN(CCCNC(=O)c3ccc(CS(=O)(=O)c4ccc(Cl)cc4)o3)CC2)cc1	31.6
CCOc1ccc(NC(=S)NCCCN2CCN(C3CCCCC3)CC2)cc1	34.5
O=C(Cn1nc(-c2ccccc2)ccc1=O)NCCN1CCN(c2cccc(Cl)c2)CC1	42
Cc1ccc(N(CC(=O)NCCSc2ccccn2)S(=O)(=O)c2ccc(F)cc2)cc1	13
Cc1ccccc1NC(=O)c1cn2c(nc3ccccc32)c(C#N)c1C	42.7
CCN(CC)CCCNC(=O)C(C)Sc1nc(-c2ccccc2)cc(C(F)(F)F)n1 (stereo not given)	46.3
CCC1CCCCN1CCCNC(=O)C1CCCN(c2ncnc3c2nc2n3CCCCC2)C1 (stereo not given)	15.5
CCOC(=O)N1CCC(N(CCN(C)C)C(=S)Nc2cccc(Cl)c2C)CC1	33.2
CC1CCN(CCCn2c(SCC(=O)NC3CCCC3)nc3ccccc3c2=O)CC1	16.9
CCOc1ccccc1NC(=O)CSc1nc2ccccc2nc1N1CCOCC1	11.2
CN(CC(=O)NCCN1CCN(Cc2ccccc2)CC1)S(=O)(=O)c1cccc2nsnc12	29
CC(=O)Nc1sc2c(c1C(c1cccc(Cl)c1)N1CCN(CCO)CC1)CCCC2 (stereo not given)	23.3
C=CCn1c(SCC(=O)N2CCC(C)CC2)nc2c3ccccc3nc-2c1O	12.6
